According to PubChem BioAssay AID1745853 (National Center for Advancing Translational Sciences (NCATS), 2022):
Where “and” joins values, the source holds several entries; their conditions need not be identical. Equal values may be shown once. The list shows a part of the results. The main result of the screen is listed elsewhere. These columns were measured beside it and carry no call.

How the values were obtained:
Assay in all cases: Primary Screen for Target Class Profiling of Small Molecule Inhibitors of Methyltransferases
[1] = biological target: Glycine N-methyltransferase (Homo sapiens) (UniProt Q14749); conditions: purified enzyme, MTase-Glo SAH luminescence; measured here: GNMT inhibition; at 40 µM; stronger effect = lower value
How it was run: (§1)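 Each enzyme was assayed with SAM and its substrate. SAH formation detected by MTase-Glo luminescence; single-point 40 uM screen[…].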

[2] = biological target: Guanidinoacetate N-methyltransferase (Homo sapiens) (UniProt Q14353); conditions: purified enzyme, MTase-Glo SAH luminescence; measured here: GAMT inhibition; at 40 µM; stronger effect = lower value
How it was run: as §1

[3] = biological target: Histamine N-methyltransferase (Homo sapiens) (UniProt P50135); conditions: purified enzyme, MTase-Glo SAH luminescence; measured here: HNMT inhibition; at 40 µM; stronger effect = lower value
How it was run: as §1

[4] = biological target: Nicotinamide N-methyltransferase (Homo sapiens) (UniProt P40261); conditions: purified enzyme, MTase-Glo SAH luminescence; measured here: NNMT inhibition; at 40 µM; stronger effect = lower value
How it was run: as §1

[5] = biological target: Phenylethanolamine N-methyltransferase (Homo sapiens) (UniProt P11086); conditions: purified enzyme, MTase-Glo SAH luminescence; measured here: PNMT inhibition; at 40 µM; stronger effect = lower value
How it was run: as §1
On the % scale 0 is the no-effect control and ±100 the full control effect.

SMILES | activity change, negative = inhibition [1] | activity change, negative = inhibition [2] | activity change, negative = inhibition [3] | activity change, negative = inhibition [4] | activity change, negative = inhibition [5]
CCOc1ccc(C2c3cccn3-c3ccccc3CN2C(=O)Nc2cc(F)ccc2F)cc1 (stereo not given) | -5.32% | 1.14% | -2.35% | -5.17% | -2.1%
CCC1c2cccn2-c2ccccc2CN1C(=O)Nc1cccc(SC)c1 (stereo not given) | 4.17% | -1.3% | -2.05% | -5.25% | -1.83%
Cc1c(N[C@@H](c2nnc(-c3ccc(C#N)cc3)o2)[C@H](C)O)ccc(C#N)c1Cl | 2.56% | 11% | 1.34% | -16.7% | 2.22%
COc1ccccc1NC(=O)N1Cc2ccccc2-n2cccc2C1c1ccc(F)cc1 (stereo not given) | -3.36% | 1.08% | 7.07% | 6.68% | 8.35%
CCC1c2cccn2-c2ccccc2CN1C(=O)Nc1cc(C)cc(C)c1 (stereo not given) | 4.18% | 3.62% | 6.85% | 8.09% | 11.7%
COCc1cn(C[C@H]2C[C@@H]3CCN2C[C@@H]3C(=O)NCc2ccco2)nn1 | -2.67% | -6.34% | 0.31% | -4.35% | -0.027%
Cc1ccc(NC(=O)N2Cc3ccccc3-n3cccc3C2C(C)C)cc1C (stereo not given) | -4.39% | 0.676% | -1.79% | -4.88% | -3.57%
CCOc1ccccc1NC(=O)N1Cc2c(C)cc(C)nc2-n2cccc2C1c1ccc(F)cc1 (stereo not given) | -1.3% | 3.91% | 3.98% | -0.387% | -2.51%
Cc1ccc(CNC(=O)N2Cc3ccccc3-n3cccc3C2c2ccc(N(C)C)cc2)cc1 (stereo not given) | 12.9% | 2.63% | 6.02% | 11% | 11.1%
Cc1cccc(C2c3cccn3-c3ccccc3CN2C(=O)Nc2ccccc2)c1 (stereo not given) | 13.4% | 0% | 3.74% | 4.47% | 5.53%
Cc1cc(C)cc(NC(=O)N2Cc3ccccc3-n3cccc3C2c2cccc(C)c2)c1 (stereo not given) | 8.18% | -1.55% | 3.58% | -6.92% | 0.577%
CN1C(=O)C(Cc2ccc3ccccc3c2)N=C(c2ccc(O)cc2)c2cc(Cl)ccc21 (stereo not given) | 4.16% | -3.4% | 9.32% | -27.8% | -1.27%
COc1ccc(C2c3cccn3-c3ccccc3CN2C(=O)Nc2cc(F)ccc2F)cc1 (stereo not given) | 7.47% | 0% | 1.38% | -1.83% | 5.19%
O=C(Nc1ccccc1)C1=NO[C@@H]2CN(Cc3ccccn3)C[C@H]12 | -3.31% | -2.28% | -2.89% | -2.65% | -4.39%
CCOC(=O)C1CCC(CNC(=O)N2Cc3ccccc3-n3cccc3C2C)CC1 (stereo not given) | 8.82% | 1.8% | 0.97% | -6.44% | 5.89%
CCOc1ccc(C2c3cccn3-c3ccccc3CN2C(=O)Nc2cccc(C)c2C)cc1 (stereo not given) | -4.76% | 2.72% | -8.93% | -8.52% | -6.39%
O=C(C1CCCCC1)N1C[C@@H]2C[C@H](C1)c1c(-c3cncnc3)ccc(=O)n1C2 | -3.23% | -7.24% | -1.9% | -9.97% | -3.58%
c1ccc2sc(C3(N4CCCCC4)CCCCC3)cc2c1 | -4.24% | 4.34% | -18.5% | -9.66% | 7.76%
COc1cccc(NC(=O)N2Cc3ccccc3-n3cccc3C2c2ccc(N(C)C)cc2)c1 (stereo not given) | 1.67% | 2.84% | -4.56% | -3.33% | -2.45%
CSc1cccc(NC(=O)N2Cc3ccccc3-n3cccc3C2c2cccs2)c1 (stereo not given) | 3.42% | -2.5% | 0.775% | -6.36% | -2.15%

SMILES | activity change, negative = inhibition [1] | activity change, negative = inhibition [2] | activity change, negative = inhibition [3] | activity change, negative = inhibition [4] | activity change, negative = inhibition [5]
C[N+]1(C)C2CCC1CC(OC(=O)c1c[nH]c3ccccc13)C2 (stereo not given) | -14.8% | -1.14% | -3.38% | -8.95% | 2%
COc1ccc(C2c3cccn3-c3ccccc3CN2C(=O)Nc2cc(C)ccc2C)cc1OC (stereo not given) | 13.5% | 3.42% | 5.6% | -1.7% | 7.37%
C=CCN1CC[C@]23c4c5ccc(O)c4O[C@H]2[C@@H](O)CC[C@@]3(O)[C@H]1C5 | -4.5% | -8.7% | -5.45% | -23.4% | -7.02%
O=C(NCCN1CCC2(CC1)C(=O)NCN2c1cccc(F)c1)c1ccc(F)c(F)c1 | -9.55% | -13.6% | -34.3% | -25.3% | -15.2%
CCOCCCNC(=O)N1Cc2ccccc2-n2cccc2C1c1cccc(C)c1 (stereo not given) | 10.5% | 0.477% | 7.52% | 8.88% | 7.58%
C#CCO[C@H]1CN2CCC1CC2 | 2.23% | 8.23% | -2.03% | -12.7% | -6.2%
COc1ccc(C)cc1NC(=O)N1Cc2ccccc2-n2cccc2C1c1cccs1 (stereo not given) | 7.01% | 0.535% | -1.81% | -9.64% | -0.462%
CCC1c2cccn2-c2ccccc2CN1C(=O)Nc1cc(C)ccc1OC (stereo not given) | -1.9% | 0% | 0.396% | 1.26% | 3.4%
CCN1C[C@]2(OC(=O)c3ccccc3NC(C)=O)CC[C@H](OC)[C@@]34[C@@H]2C[C@@H]([C@@H]13)[C@@]1(O)C[C@H](OC)[C@H]2C[C@@H]4[C@]1(O)[C@H]2OC | 7.41% | 4.27% | 15.3% | -10.6% | 4.19%
CCOC(=O)CNC(=O)N1Cc2ccccc2-n2cccc2C1c1ccccc1C (stereo not given) | 15.2% | 0.247% | 8.74% | 9.86% | 11.7%
COc1cc(OC)c(NC(=O)N2Cc3ccccc3-n3cccc3C2c2ccccc2)cc1Cl (stereo not given) | 5.16% | 4.91% | -3.02% | 0.656% | -0.715%
O=C(Nc1ccc2c(c1)OCCO2)N1Cc2ccccc2-n2cccc2C1c1cccc(Cl)c1 (stereo not given) | 9.11% | 4.64% | 1.31% | -3.02% | 1.38%
CCOc1ccc2c(n1)CCNC2 | -1.14% | -4.85% | 0.05% | -1.46% | -2.47%
Cc1ccc(NC(=O)N2Cc3ccccc3-n3cccc3C2c2ccc(N(C)C)cc2)cc1 (stereo not given) | 10.9% | 0% | 4.27% | 8.23% | 9.9%
CCOc1ccc(NC(=O)N2Cc3ccccc3-n3cccc3C2c2ccccc2)cc1 (stereo not given) | 3.35% | -3.28% | -2.27% | -5.34% | -3.42%
COc1ccc(NC(=O)N2Cc3ccccc3-n3cccc3C2c2ccccc2)c(OC)c1 (stereo not given) | 5.25% | 3.67% | -0.102% | 0.176% | 3.62%
CN1CC[C@@]2(C)c3cc(O)ccc3N(C)C12 (stereo not given in full) | -56.2% | -19.2% | -16.5% | -19.6% | -28.9%
CCc1ccc(C2c3cccn3-c3ccccc3CN2C(=O)Nc2ccccc2CC)cc1 (stereo not given) | 13.9% | 0% | 6.45% | 0.517% | 7.4%
O=C(NCc1ccccc1)N1Cc2ccccc2-n2cccc2C1c1ccccc1Cl (stereo not given) | -0.611% | -6.66% | 1.25% | -6.22% | -3.56%
CNc1ccc2oc(C[C@H]3O[C@@]4(CC[C@H]3C)O[C@H]([C@H](C)C(=O)c3ccc[nH]3)[C@H](C)C[C@H]4C)nc2c1C(=O)O | -63.5% | -65.2% and -19.1% | -11.8% | -63.9% and -9.77% | -81.8% and -23.5%
